The whole screen tested about 110,000 compounds, of which about 230 (0.21%) showed an effect of 50% or more. Some of the results follow.
molecular target: DPAP1 (Plasmodium falciparum, UniProt Q8IIJ9); assay: primary screen, percent inhibition; read by cleavage of a fluorogenic dipeptide substrate; higher = more effect of the substance; parameters: species or system P. falciparum D10 trophozoite lysates; single well
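Also: 30 min substrate incubation versus DMSO and 10 µM JCP410 controls.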

Chain of DPAP1 (Q8IIJ9 whole entry, looked up): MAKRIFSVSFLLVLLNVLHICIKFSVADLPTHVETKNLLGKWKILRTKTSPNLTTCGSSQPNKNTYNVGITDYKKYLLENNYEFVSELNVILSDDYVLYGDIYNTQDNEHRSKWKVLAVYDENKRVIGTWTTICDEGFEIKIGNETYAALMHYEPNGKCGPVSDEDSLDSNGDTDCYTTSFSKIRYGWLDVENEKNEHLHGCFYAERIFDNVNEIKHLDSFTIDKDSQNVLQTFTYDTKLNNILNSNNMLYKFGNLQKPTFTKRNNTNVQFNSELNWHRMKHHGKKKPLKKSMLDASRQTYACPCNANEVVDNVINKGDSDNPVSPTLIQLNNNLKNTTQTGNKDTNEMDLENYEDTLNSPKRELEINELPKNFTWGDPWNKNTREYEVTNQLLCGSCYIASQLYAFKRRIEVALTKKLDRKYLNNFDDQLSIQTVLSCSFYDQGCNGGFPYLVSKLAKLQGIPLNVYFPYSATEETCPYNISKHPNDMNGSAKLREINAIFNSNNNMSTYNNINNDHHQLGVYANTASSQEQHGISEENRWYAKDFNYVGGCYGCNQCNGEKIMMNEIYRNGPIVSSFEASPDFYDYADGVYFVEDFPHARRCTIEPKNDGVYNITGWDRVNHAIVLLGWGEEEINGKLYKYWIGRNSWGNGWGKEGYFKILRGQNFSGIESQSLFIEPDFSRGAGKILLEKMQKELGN

Structure (SMILES) | % Inhibition @ 10 uM
COc1ccccc1OCC(=O)N(Cc1nc(-c2ccc(C)cc2)no1)C(C)C | 0.232%
Cc1ccc(S(=O)(=O)NCCCCCC(=O)Nc2nccs2)cc1 | -1.6%
Cn1cc(CC(=O)NCCCN2CCCC2=O)c2ccccc21 | -3.28%
CC(C)NC(=O)CCCOc1ccc(Cl)cc1Cl | -1.48%
Cc1cccc(Cn2c(Sc3nncn3C)nc3c2c(=O)[nH]c(=O)n3C)c1 | 0.758%
CCn1cc(C(=O)O)c(=O)c2cc(N3CCOCC3)c(F)cc21 | 4.65%
COc1ccc(-n2c(C)cc(C(=O)CN3CCCCC3)c2C)cc1 | 1.81%
CC(C)(C)c1ccc(-c2nnc3sc(-c4ccco4)nn23)cc1 | 3.38%
Cc1cc(C)c(C)c(OCCCN2CCCCC2)c1 | 1.35%
O=C(NC1CCCCCC1)c1cccs1 | 3.47%
CCc1cc(=O)oc2c3c(c(Cl)cc12)OCN(Cc1ccccc1)C3 | 0.895%
Cc1ccc(OCC(=O)NC2CCS(=O)(=O)C2)c(C)c1 (stereo not drawn) | -5.35%
O=C1CSC(c2ccc(Cl)cc2)N1c1ccc(Cl)cc1 (stereo not drawn) | -0.0217%
COc1ccc(C2=CC(c3cc(Cl)ccc3OC(F)F)n3nnnc3N2)cc1 (stereo not drawn) | 1.73%
CSCCC(C(=O)Nc1ccc(C(C)=O)cc1)N1C(=O)c2ccccc2C1=O (stereo not drawn) | -0.564%
Cc1cc(C)c(Cn2c(C)c(CNCc3ccccc3)c(C(=O)O)c2C)c(C)c1 | -1.92%
Nc1nc(O)c(Br)c(Oc2ccc(F)cc2)n1 | -1.05%
Cc1c2cnn(CC(=O)N3CCC(C(N)=O)CC3)c(=O)c2c(C)n1Cc1ccccc1F | -0.447%
CC(=O)c1c(O)cc(C)o/c1=N\c1ccc2c(c1)OCCO2 | 2.69%
CCOc1ccccc1N1C(=O)C2CC(C)=C(C)CC2C1=O (stereo not drawn) | -4.82%
Cc1cc(NC(=O)c2cc(C)on2)n(-c2ccccc2)n1 | -3.77%

Structure (SMILES) | % Inhibition @ 10 uM
O=C1c2ccccc2S(=O)(=O)N1CC(O)Cn1ccc2ccccc21 (stereo not drawn) | -1.72%
Cc1cccc(C)c1OCC(O)CN(C)S(=O)(=O)O (stereo not drawn) | 3.32%
CCc1ccc2nc(N(CCN(C)C)C(=O)c3ccc(C(=O)OC)cc3)sc2c1 | -1.95%
COC(=O)c1cc2oc3ccccc3c2n1Cc1cc(=O)n2ccccc2n1 | 4.83%
Cc1ccc(S(=O)(=O)Nc2cccc(C(N)=O)c2)cc1 | -12.1%
CCN(CC)C(=O)C1=C(C)Nc2nc3ccccc3n2C1c1cc(OC)ccc1OC (stereo not drawn) | 4.85%
O=C(NCC1(c2ccccc2)CCCC1)c1cc2ccccc2o1 | 2.3%
Nc1c(C(=O)c2cccs2)sc2nc(-c3cccs3)ccc12 | 0.385%
COc1ccccc1-n1c(CNCC2CCCO2)nc2ccccc2c1=O (stereo not drawn) | 3.58%
COc1ccc(OCc2cccc(C(=O)N3N=C(C(F)F)CC3(O)C(F)F)c2)cc1 (stereo not drawn) | 1.39%
c1ccc2nc3c(nc2c1)c1ccccc1n3CN1CCOCC1 | -2.18%
COc1ccc(C2=NN3C(C2)c2cc(OC)ccc2OC3c2cccnc2)cc1 (stereo not drawn) | 27%
O=C(Nc1noc2ccccc12)c1ccc(CS(=O)(=O)Cc2ccccc2F)o1 | 6.76%
CCCCC1=NN(C(=O)c2cccc(OC)c2)C(O)(C(F)(F)F)C1 (stereo not drawn) | 0.673%
CC(C)Cn1c(=O)c2sccc2n2c(CCCC(=O)NC(C)C34CC5CC(CC(C5)C3)C4)nnc12 (stereo not drawn) | -2.72%
N#CC1=C(N)Oc2cc(O)ccc2C1c1cccc([N+](=O)[O-])c1 (stereo not drawn) | 3.32%
O=C(Nc1ccccc1)c1cnc2ccccc2n1 | -1.04%
O=c1cc(Cl)c2cc3c4c(c2o1)CCCN4CCC3 | 3.15%
CCOc1ccc(NC(=O)C(C)Sc2nc3ccccc3[nH]2)cc1 (stereo not drawn) | -0.519%
COC(=O)/C(C#N)=C/c1c(Oc2cc(C)ccc2C(C)C)nc2ccccn2c1=O | 11%
CC(=O)c1c(C)n(C2CCCCC2)c2ccc(O)cc12 | -5.28%

Structure (SMILES) | % Inhibition @ 10 uM
COc1ccc(NC(=O)c2ccccc2NC(=O)CCC(=O)O)cc1 | 3.04%
Cc1sc2ncnc(SCC(=O)NCc3ccco3)c2c1C | 0.222%
O=C(c1ccc(Cl)c(Cl)c1)N1CCN(c2nc(-c3ccccc3)cs2)CC1 | 0.9%
COc1ccc(/C=C2\SC(Nc3ccc(O)cc3)=NC2=O)cc1OC | -6.25%
C=CCn1c(=N)c(C(=O)NC2CCCCC2)cc2c(=O)n3cccc(C)c3nc21 | 1.97%
COC(=O)c1sc(NC(=O)C2CCC2)c(C(=O)OC)c1C | -5.81%
C/C(=C\c1ccccc1)CN1CCCC(CO)C1 (stereo not drawn) | -5.26%
Cc1cc(-c2ccc(NC(=O)c3ccc([N+](=O)[O-])cc3)c(C)c2)ccc1NC(=O)c1ccc([N+](=O)[O-])cc1 | 2.54%
Cc1ccc(NC(=O)Cn2cc(C#N)c3ccccc32)cc1 | -0.968%
COCCN1C(=O)c2ccccc2C(C(=O)NCCCN2CC(C)CC(C)C2)C1c1cccs1 (stereo not drawn) | 7.38%
O=C(NCc1ccccc1)C(c1ccccc1)c1ccccc1 | 4.41%
Cc1ccccc1-c1nc(CS(=O)CC(=O)NC2CCC(C)CC2)c(C)o1 (stereo not drawn) | -1.05%
Cc1ccc(Cn2ccc(NC(=O)CCC(=O)O)n2)cc1 | -1.1%
O=C(CN1CCOCC1)N1N=C(c2cccs2)CC1c1cccs1 (stereo not drawn) | -6.17%
CCOC(=O)C1=C(C)N=c2s/c(=C\c3ccc(C)cc3)c(=O)n2C1c1ccc(C)cc1 (stereo not drawn) | -3.77%
CC(=O)c1cc(-c2ccccc2)n(CC(=O)Nc2nnc(N(C)Cc3ccccc3)s2)c1C | 4.83%
CC(C)(C)c1cc(C(=O)O)nn1-c1ccccc1 | 3.53%
O=C(c1cnn2c1NC(c1ccc(Br)cc1)CC2C(F)(F)F)N1CCOCC1 (stereo not drawn) | 0.746%
CS(=O)(=O)N(CC(=O)Nc1ccc2ccccc2c1)c1cccc2ccccc12 | -5%
CC(C)CNc1nc(Oc2ccc(OC(C)C)nn2)nc(N2CCOCC2)n1 | 0.401%
O=c1c2cccnc2n(Cc2cccc(C(F)(F)F)c2)c(=O)n1Cc1ccc(F)cc1 | -1.66%

From paper PMC6919601, “Identification of Plasmodium dipeptidyl aminopeptidase allosteric inhibitors by high throughput screening” (PLoS ONE, 2019)
